Measurements reported in PubChem BioAssay AID1346428 (National Center for Advancing Translational Sciences (NCATS), 2018).
Hit rate of the full screen: of about 48,000 compounds, about 1,200 (2.5%) were called active. Inconclusive results (about 2%) are left out.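 The calls were made as follows: active = activation of at least 60% and not above a set upper limit (about 1 call in 100 departs from these limits); inconclusive = activation of 40% to 60%, or above that upper limit; inactive = activation under 40%.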 The list shows a part of the results. Where a SMILES comes first, the peptide text is derived from it. [ ]: non-standard residue; d: D form. The star is where a group is joined. Sta = CC(C)C[C@H](N)[C@@H](O)CC(=O)O; Isovaleryl = CC(C)CC(=O)*

The molecules below were run against Probable G-protein coupled receptor 32 (Homo sapiens) (UniProt O75388) (assay: qHTS for Agonists of Human Resolvin D1 Receptor DRV1). Conditions: CHO-K1 GPR32 beta-arrestin PathHunter luminescence, 90 min; at 76.9 µM; stronger effect = higher value; zero percent set by DMSO-only wells.
Procedure, shortened: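 PathHunter enzyme-fragment complementation, CHO-K1 GPR32 stable line; 2,500 cells/well, overnight attach; cpd 90 min 37 °C 5% CO2; detection reagent 1 h RT; chemiluminescence. DMSO = EC0.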

UniProt O75388, sequence (O75388 whole entry, looked up, the tested form may be a part): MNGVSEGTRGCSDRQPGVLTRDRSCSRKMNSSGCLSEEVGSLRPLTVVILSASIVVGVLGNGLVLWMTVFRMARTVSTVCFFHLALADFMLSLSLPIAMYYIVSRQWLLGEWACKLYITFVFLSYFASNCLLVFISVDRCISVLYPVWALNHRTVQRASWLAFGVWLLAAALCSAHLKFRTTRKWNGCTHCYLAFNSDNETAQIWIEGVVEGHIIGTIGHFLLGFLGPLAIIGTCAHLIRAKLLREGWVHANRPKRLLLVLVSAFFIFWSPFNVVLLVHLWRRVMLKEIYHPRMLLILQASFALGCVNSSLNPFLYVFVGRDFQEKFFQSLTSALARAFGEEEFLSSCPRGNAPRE

activation, inactive:
Cc1c(-c2ccccc2)c(=O)oc2c(CN3CCOCC3)c(O)ccc12 -7.51%
Cc1ccccc1CN1CCCN(CC(=O)Nc2ccc(F)cc2)S1(=O)=O 4.89%
Cc1cccc(NC(=O)c2cn(-c3ccccc3)nc2-c2ccccc2)c1C -0.972%
COc1cccc(NS(=O)(=O)c2ccc3[nH]cc(C(=O)NC(C)c4ccccc4)c(=O)c3c2)c1 (stereo not given) -22.7%
CCOC(=O)C1CCN(Cc2cn3c(-c4ccc(OC)cc4)nnc3s2)CC1 5.11%
Cc1ccc(OCCCCn2c(-c3ccc(Cl)cc3)nc3ccccc3c2=O)cc1 8.42%
CCOC(=O)c1c(C)oc2nc(C)nc(NCCc3ccc(Cl)cc3)c12 4.45%
Cc1ccc(NC(=O)Cn2c(=O)n(Cc3ccc4c(c3)OCO4)c(=O)c3oc4ccccc4c32)cc1C -13.7%
Cn1c(=O)oc2cc(S(=O)(=O)NC(Cc3ccccc3)C(=O)Nc3ccc(F)c(Cl)c3)ccc21 (stereo not given) 1.74%
Cc1ccc(/C=C/C(=O)Nc2ccc3nc(N4CCC(C)CC4)cc(C)c3c2)cc1 -7.53%
CO[C@@]12[C@H](COC(N)=O)C3=C(C(=O)C(C)=C(N)C3=O)N1C[C@@H]1N[C@@H]12 -21.5%
CCOc1ccc(C(=O)Nc2ccc3nc(N(CC)CC)cc(C)c3c2)cc1 22.5%
Cc1cc(N2CCC(C(=O)Nc3ccc(F)cc3F)CC2)n2nc(C)c(-c3ccc(Cl)cc3)c2n1 -5.48%
CCN(CC)c1ccc(NC(=O)CN2C(=O)c3cccnc3Sc3ccccc32)c(C)c1 -21.5%
COCCN1Cc2cccc(C(=O)Nc3ccc(Cl)cc3Cl)c2C1=O 15.3%
C[C@H](O)C(=O)Nc1c(I)c(C(=O)NC(CO)CO)c(I)c(C(=O)NC(CO)CO)c1I 1.16%
CCOc1cc(C2C(C(=O)OC)=C(C)NC3=C2C(=O)c2ccccc23)c(Br)cc1O (stereo not given) -50.5%
COc1ccc2oc(-c3ccc(C)c(NC(=O)CSc4ccc(Cl)cc4)c3)nc2c1 -6.15%
CC(=O)N1CCc2c(sc3c2c(=O)n(CCc2ccccc2)c(=O)n3Cc2cccc(C)c2)C1 -6.97%
O=c1c(=O)n(Cc2c(F)cccc2Cl)ccn1Cc1ccccc1 -19.6%
COc1ccc(N2CCN(C3C(=O)c4ccccc4N3C(C)=O)CC2)cc1 (stereo not given) -16.4%
Cc1ccc(-c2c3c(=O)n(C)c(=O)n(C)c3cn2-c2cc(C)ccc2O)cc1 -19.9%
COc1cccc(NC(=O)Cn2c(=O)n(CC(=O)NCCc3ccccc3)c(=O)c3sccc32)c1 -16.5%
Cc1c(Cl)cccc1NC(=O)CSc1nc(=O)n(Cc2cccnc2)c2c1CCC2 -1.39%
Cc1cc(Cl)ccc1NS(=O)(=O)c1ccc2c(c1)CC(C)N2C(=O)C1CCC1 (stereo not given) 10.6%
O=C1CC(c2nc(-c3ccccc3)no2)CN1c1ccc2c(c1)OCCO2 (stereo not given) 11.6%
COC(=O)C1CCN(C(c2ccccc2)c2sc3nc(-c4ccco4)nn3c2O)CC1 (stereo not given) -8.31%
Cc1c(Cl)cccc1-n1ncc(C(=O)Nc2ccc(F)cc2F)c1C1CCN(C(=O)OC(C)(C)C)CC1 -10.1%
Cc1ccc(Cn2cc(S(=O)(=O)c3ccc(C)cc3)c(=O)c3cc(F)c(N4CCCC4)cc32)cc1 3.72%
Cc1ccc(CNC(=O)C2CCN(C(=O)c3cnn(-c4ccccc4)c3-n3cccc3)CC2)cc1 1.56%
CCOc1cccc(NC(=O)c2ccc(F)c(S(=O)(=O)N(CC)c3cccc(C)c3)c2)c1 -27.8%
Cc1cc(C)cc(NC(=O)Cn2c3ncccc3c(=O)n2-c2ccc(C)c(C)c2)c1 -21.7%
N[C@H](C(=O)O)c1cc(O)cc(O)c1 12.5%
O=C(NCc1ccccc1)c1ccc2c(c1)nc1n2CCCCC1 -16.8%
O=C(Cn1cnc2nc3c(cc2c1=O)CCCC3)N1CCN(c2ccccc2)CC1 -6.09%
Cc1ccc(CSc2ncc(Cl)c(C(=O)Nc3sc4c(c3C(N)=O)CCCC4)n2)cc1 -2.44%
Cc1cccc(N2CCN(Cc3nnc(-c4ccc5c(c4)OCO5)o3)CC2)c1C -21.2%
Cc1cccc(C#Cc2ccccc2)n1 -9.3%
CCc1nn2c(=O)cc(COc3ccc(/C=C(\C#N)C(=O)Nc4ccc(C)cc4)cc3)nc2s1 -0.0994%
Cc1ccc(-c2cc(C(F)(F)F)c(C#N)c(SCC(=O)O)n2)cc1 -20.8%
CCc1ccc(NC(=O)Cn2c(=O)n(CC3CCCO3)c(=O)c3cc(OC)c(OC)cc32)cc1 (stereo not given) -3.73%
c1ccc(C(NCc2cccnc2)(c2ccccc2)c2ccccc2)cc1 -24.8%
O=C(Cn1c(=O)c2cccn2c2ccc(F)cc21)N1CCN(c2ccccc2)CC1 -22.8%
Cc1ccccc1CNC(=O)C(=O)NCC(c1cccs1)S(=O)(=O)c1ccc(Cl)cc1 (stereo not given) -0.846%
O=C(CN1C(=O)C2CCCCN2c2ccc(C(=O)N3CCCC3)cc21)NCc1cccc(F)c1 (stereo not given) -23.3%
COc1ccc(NC(=O)Nc2ccccc2OCc2cc(=O)n3ccccc3n2)c(OC)c1 -4.77%
CC(C)(C)C1CCC(CC2=C(O)c3ccccc3C(=O)C2=O)CC1 (stereo not given) -10.8%
CCC1=C(c2ccc(C)cc2)S(=O)(=O)N=C1N1CCC(C(=O)NCc2ccccc2Cl)CC1 -16.6%
Cc1ccc(C)c(N2CCN(CCCNC(=O)c3nnc(Cc4ccc(F)cc4Cl)o3)CC2)c1 1.48%
CCOC(=O)c1cc(S(=O)(=O)N2CCN(c3ccc(F)cc3)CC2)[nH]n1 -26.8%
CCCN(CCC)CCNC(=O)C1CCCN(S(=O)(=O)c2cccc3nsnc23)C1 (stereo not given) -18.9%
CCCCCOC(=O)c1ccc(OC(=O)c2sc3ncn(Cc4cccc(F)c4)c(=O)c3c2C)cc1 -3.53%
COc1ccc(OC)c(CNc2sc3c(c2C(=O)Nc2cc(OC)ccc2OC)CCCC3)c1 -8.17%
COc1ccc(OC)c(NC(=O)N2CCC(CN3CCCCC3)CC2)c1 2.48%
CC(C)CC(=O)N[C@H](C(=O)N[C@H](C(=O)N[C@@H](CC(C)C)[C@@H](O)CC(=O)N[C@@H](C)C(=O)N[C@@H](CC(C)C)[C@@H](O)CC(=O)O)C(C)C)C(C)C (Isovaleryl-VV[Sta]A[Sta]-OH) 10.1%
CCOc1cc2[nH]c(=O)n(CCCC(=O)N3CCN(c4cccc(Cl)c4)CC3)c(=O)c2cc1OCC -17.9%
Cc1nc(SCc2ccc(Cl)cc2)c(C#N)c(C)c1Cl -9.88%
CCOC(=O)c1cnc2ccc(OCC)cc2c1Nc1cc(Cl)c(OC)cc1OC 24.9%
CC(=O)N1CCCc2cc(S(=O)(=O)N3CCCC(C(=O)Nc4cccc(Cl)c4C)C3)ccc21 (stereo not given) -1.21%
CC(C)Cn1cc(C(=O)N2CCN(c3cccc(Cl)c3)CC2)c2c3ccccc3n(C)c2c1=O -23.3%
Cc1ccc(C)c(OC(=O)CSc2nnc(-c3ccc4c(c3)OCO4)o2)c1 -14.9%
COC(=O)c1ccc(Cn2c(SCC(=O)N(C)c3ccccc3)nc3ccccc32)cc1 -14.8%
CCOc1cc(C(=O)Nc2ccc(S(=O)(=O)Nc3cc(OC)nc(OC)n3)cc2)cc(OCC)c1OCC 29.7%
CCCCc1ccc(NC(=O)c2ccc3c(c2)CCN3S(=O)(=O)c2ccccc2)cc1 -5.55%
O=C(Nc1nnc(S(=O)(=O)N2CCCCCC2)s1)c1ccccc1Br 20.4%
COc1ccc2c(c1)CC(C(=O)NCCN1CCN(c3cccc(C)c3C)CC1)CO2 (stereo not given) -14.4%
COc1ccc2c(c1)c1c(c(=O)n(Cc3ccccc3)c(=O)n1CC(=O)Nc1ccc(C)cc1C)n2C 4.08%
CC(C)CCNC(=O)Nc1cc(C(=O)NCc2cccc(F)c2)ccc1N1CCCC1 -22%
O=C(C1CCN(S(=O)(=O)Cc2ccccc2)CC1)N1CCN(c2cccc(Cl)c2)CC1 -2.49%
COc1ccc(C)cc1NC(=O)Cn1c(=O)oc2cc(S(=O)(=O)NCc3ccccc3)ccc21 -0.515%
CSc1cccc(NC(=O)C2CCN(S(=O)(=O)c3ccc4[nH]c5c(c4c3)CCCCC5)CC2)c1 5.2%
Cc1ccc(NC(=O)C2CCCN(S(=O)(=O)c3c(C)n[nH]c3C)C2)cc1C (stereo not given) 16%
CCOC(=O)c1ccc(CN(Cc2ccc(C)cc2)S(=O)(=O)c2ccc(NC(C)=O)cc2)cc1 -18.3%
c1ccc(CCNc2nc(-c3ccccc3)cs2)cc1 9.66%
CCn1cc2nc(SCc3ccc(F)cc3)n(Cc3ccc(Cl)cc3)c(=O)c2n1 2.74%
CCCS(=O)(=O)N1CC(=O)N(c2ccc(Cl)cc2)C(C)(C(=O)NC2CCCC2)C1 (stereo not given) 0.402%
COCCCNC(=O)CN1C(=O)CSc2ccc(S(=O)(=O)N3CCOCC3)cc21 -6.95%
CC(=O)Nc1ccc(Nc2nnc(-c3ccc(C)c(S(N)(=O)=O)c3)c3ccccc23)cc1 -2.13%
Cc1ccc(NC(=O)C(=O)NCCc2csc3nc(-c4ccccc4C)nn23)cc1Cl 5.74%
O=C(Nc1ccc(S(=O)(=O)N(Cc2ccccc2)c2ccccc2)cc1)c1ccc([N+](=O)[O-])cc1 -5.12%
